# Laboratory results reported in the supplement of paper PMC8728848.
# The list shows a part of the results.
# Columns and labels:
# Test in all cases: glycan array binding signal (z-score within array); higher = stronger binding
# Details in all cases: glycan notation: IUPAC condensed, linker removed
# [1] = molecular target: Fuc(a1-2)[Gal(a1-3)]Gal(b1-4)GlcNAc(b1-2)Man(a1-3)[Fuc(a1-2)[Gal(a1-3)]Gal(b1-4)GlcNAc(b1-2)Man(a1-6)]Man(b1-4)GlcNAc(b1-4)GlcNAc
# In short: (§1)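 Columns mapping to the same glycan were averaged after glycan names were converted to IUPAC-condensed notation. The data come from 3228 arrays in the Consortium for Functional Glycomics database, limited to those with an available protein sequence. Binding is reported as a within-array Z-score averaged across arrays of one protein sequence and across linkers.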
# [2] = molecular target: Fuc(a1-2)[Gal(a1-3)]Gal(b1-4)GlcNAc(b1-2)Man(a1-3)[Fuc(a1-2)[Gal(a1-3)]Gal(b1-4)GlcNAc(b1-2)Man(a1-6)]Man(b1-4)GlcNAc(b1-4)[Fuc(a1-6)]GlcNAc
# In short: as §1
# [3] = molecular target: Fuc(a1-2)[Gal(a1-3)]Gal(b1-4)GlcNAc(b1-3)GalNAc
# In short: as §1
# [4] = molecular target: Fuc(a1-2)[Gal(a1-3)]Gal(b1-4)GlcNAc(b1-3)[Fuc(a1-2)[Gal(a1-3)]Gal(b1-4)GlcNAc(b1-6)]GalNAc
# In short: as §1
# [5] = molecular target: Fuc(a1-2)[Gal(a1-3)]Gal(b1-4)GlcNAc(b1-6)GalNAc
# In short: as §1
# [6] = molecular target: Fuc(a1-2)[Gal(a1-3)]Gal(b1-4)[Fuc(a1-3)]Glc
# In short: as §1
# [7] = molecular target: Fuc(a1-2)[Gal(a1-3)]Gal(b1-4)[Fuc(a1-3)]GlcNAc
# In short: as §1
# [8] = molecular target: Fuc(a1-2)[Gal(a1-3)]Gal(b1-4)[Fuc(a1-3)]GlcNAc(b1-3)GalNAc
# In short: as §1
# [9] = molecular target: Fuc(a1-2)[Gal(a1-4)]Gal(b1-4)GlcNAc
# In short: as §1
# [10] = molecular target: Fuc(a1-2)[GalNAc(a1-3)]Gal
# In short: as §1
# [11] = molecular target: Fuc(a1-2)[GalNAc(a1-3)]Gal(b1-3)GalNAc(a1-3)[Fuc(a1-2)]Gal(b1-4)GlcNAc
# In short: as §1
# [12] = molecular target: Fuc(a1-2)[GalNAc(a1-3)]Gal(b1-3)GalNAc(b1-3)Gal(a1-4)Gal(b1-4)Glc
# In short: as §1
# [13] = molecular target: Fuc(a1-2)[GalNAc(a1-3)]Gal(b1-3)GlcNAc
# In short: as §1
# [14] = molecular target: Fuc(a1-2)[GalNAc(a1-3)]Gal(b1-3)GlcNAc(b1-2)Man(a1-3)[Fuc(a1-2)[GalNAc(a1-3)]Gal(b1-3)GlcNAc(b1-2)Man(a1-6)]Man(b1-4)GlcNAc(b1-4)GlcNAc
# In short: as §1
# [15] = molecular target: Fuc(a1-2)[GalNAc(a1-3)]Gal(b1-3)GlcNAc(b1-2)Man(a1-3)[Fuc(a1-2)[GalNAc(a1-3)]Gal(b1-3)GlcNAc(b1-2)Man(a1-6)]Man(b1-4)GlcNAc(b1-4)[Fuc(a1-6)]GlcNAc
# In short: as §1
# [16] = molecular target: Fuc(a1-2)[GalNAc(a1-3)]Gal(b1-3)GlcNAc(b1-3)GalNAc
# In short: as §1
# [17] = molecular target: Fuc(a1-2)[GalNAc(a1-3)]Gal(b1-3)GlcNAc(b1-6)GalNAc
# In short: as §1
# [18] = molecular target: Fuc(a1-2)[GalNAc(a1-3)]Gal(b1-4)Glc
# In short: as §1
# [19] = molecular target: Fuc(a1-2)[GalNAc(a1-3)]Gal(b1-4)GlcNAc
# In short: as §1
# [20] = molecular target: Fuc(a1-2)[GalNAc(a1-3)]Gal(b1-4)GlcNAc(b1-2)Man
# In short: as §1
# [21] = molecular target: Fuc(a1-2)[GalNAc(a1-3)]Gal(b1-4)GlcNAc(b1-2)Man(a1-3)[Fuc(a1-2)[GalNAc(a1-3)]Gal(b1-4)GlcNAc(b1-2)Man(a1-6)]Man(b1-4)GlcNAc(b1-4)GlcNAc
# In short: as §1
# [22] = molecular target: Fuc(a1-2)[GalNAc(a1-3)]Gal(b1-4)GlcNAc(b1-2)Man(a1-3)[Fuc(a1-2)[GalNAc(a1-3)]Gal(b1-4)GlcNAc(b1-2)Man(a1-6)]Man(b1-4)GlcNAc(b1-4)[Fuc(a1-6)]GlcNAc
# In short: as §1
# [23] = molecular target: Fuc(a1-2)[GalNAc(a1-3)]Gal(b1-4)GlcNAc(b1-3)Gal(b1-4)GlcNAc
# In short: as §1
# [24] = molecular target: Fuc(a1-2)[GalNAc(a1-3)]Gal(b1-4)GlcNAc(b1-3)Gal(b1-4)GlcNAc(b1-3)Gal(b1-4)GlcNAc
# In short: as §1
# [25] = molecular target: Fuc(a1-2)[GalNAc(a1-3)]Gal(b1-4)GlcNAc(b1-3)GalNAc
# In short: as §1
# [26] = molecular target: Fuc(a1-2)[GalNAc(a1-3)]Gal(b1-4)GlcNAc(b1-3)[Fuc(a1-2)[GalNAc(a1-3)]Gal(b1-4)GlcNAc(b1-6)]GalNAc
# In short: as §1
# [27] = molecular target: Fuc(a1-2)[GalNAc(a1-3)]Gal(b1-4)GlcNAc(b1-6)GalNAc
# In short: as §1
# [28] = molecular target: Fuc(a1-2)[GalNAc(a1-3)]Gal(b1-4)[Fuc(a1-3)]GlcNAc
# In short: as §1
# [29] = molecular target: Fuc(a1-2)[GalNAc(a1-3)]Gal(b1-4)[Fuc(a1-3)]GlcNAc(b1-3)GalNAc
# In short: as §1
# [30] = molecular target: Fuc(a1-2)[GalNAc(a1-4)]Gal(b1-4)GlcNAc
# In short: as §1
binder,measurement,setting,value
"CC1G-10077 (Coprinopsis cinerea), A8NDT7 (protein) MALNEGVYWIRNSRFTNKVLDLDAANVAKGTSILDFNEHGTFNENHNQLWIVERFQSRDTYLIRSVHSNLVLDLSQGLSANGTPILCWTQHGGTNQQWRIEWVKDDNKTPLYRIVSVATGTAISHNEDDSSAYTVAWSVDDGPKQLWSFDPFVTPLLYRLRVKSTSRVLDLAAASADNGTLALAWEQHTAITKRNQLWWLPYRSGAEEYTIQCLETSTVADLSGGNSGNGTPIYGWQSHGGRNQQWKFEPTSDSGDYYHIKNVEGGSVMDAYMNDSQKRVGGWSNNGGDNQKWLLDPLPSPGPGWVLIQNGGTGKFLCSTPSGDIGTADGPETVYDYSVQWRFIQREYTGVYHVVNRATGAYLRQIGTSMPSIGLAEENDDELKDWWMLETYDNSEIGLASIISRWTGNVLDHYGGVSVQALDNNTENSYRSWAIIPARDWLTSFSLVNGQGGLCLAAQYAREETRLSTTANVNDFHAQWVFRKPSGSSGYTIQNKYNNHYVGGTSARWELVVCCNKYFGIRNTSTQKYLAIEDGQVTFQDQDMTDRKQCWELCSGRATDTSGNDYDLIYMDDDLLEVMIPWVGDKQGDLKHYIEKRATKKPPKDKGGWQLPAAGLIKKPKFNDIRQLLQELIEQWEWDVVNEEREQIQTLVSIDEAEARRLLGRRPHPDIVAAYQRSRSSTLFRIDRQGYFNIAGDRYVNIQGQYGDDSYFHIALPVGVRFGREQIRRFLRDSLDRSTSVTITPTTCKPPSGGPDYNRDPDSDGDNSWIKWTIAVVGTSAIKHSEL",glycan array binding signal (z-score),[1],-0.368
same,glycan array binding signal (z-score),[2],-0.469
same,glycan array binding signal (z-score),[3],-0.404
same,glycan array binding signal (z-score),[4],-0.279
same,glycan array binding signal (z-score),[5],-0.501
same,glycan array binding signal (z-score),[6],-0.43
same,glycan array binding signal (z-score),[7],-0.43
same,glycan array binding signal (z-score),[8],-0.406
same,glycan array binding signal (z-score),[9],-0.099
same,glycan array binding signal (z-score),[10],-0.443
same,glycan array binding signal (z-score),[11],-0.447
same,glycan array binding signal (z-score),[12],-0.459
same,glycan array binding signal (z-score),[13],-0.391
same,glycan array binding signal (z-score),[14],-0.469
same,glycan array binding signal (z-score),[15],-0.413
same,glycan array binding signal (z-score),[16],-0.357
same,glycan array binding signal (z-score),[17],0.3
same,glycan array binding signal (z-score),[18],-0.375
same,glycan array binding signal (z-score),[19],-0.44
same,glycan array binding signal (z-score),[20],-0.446
same,glycan array binding signal (z-score),[21],-0.284
same,glycan array binding signal (z-score),[22],-0.42
same,glycan array binding signal (z-score),[23],-0.185
same,glycan array binding signal (z-score),[24],0.122
same,glycan array binding signal (z-score),[25],-0.448
same,glycan array binding signal (z-score),[26],-0.15
same,glycan array binding signal (z-score),[27],0.669
same,glycan array binding signal (z-score),[28],-0.447
same,glycan array binding signal (z-score),[29],-0.47
same,glycan array binding signal (z-score),[30],0.652
